Out of some 310,000 compounds screened, about 14,000 (4.5%) showed an effect of 50% or more. Effects have a minus sign here. This is one part of the list.
Target: human ether-à-go-go-related gene (hERG) potassium channel (human, UniProt Q12809)
Assay: primary screen, population patch clamp on CHO cells stably expressing hERG
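Further: peak tail current of the secondary pulse compared with the same well before compound.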

Sequence of human ether-à-go-go-related gene (hERG) potassium channel (Q12809 whole entry, looked up): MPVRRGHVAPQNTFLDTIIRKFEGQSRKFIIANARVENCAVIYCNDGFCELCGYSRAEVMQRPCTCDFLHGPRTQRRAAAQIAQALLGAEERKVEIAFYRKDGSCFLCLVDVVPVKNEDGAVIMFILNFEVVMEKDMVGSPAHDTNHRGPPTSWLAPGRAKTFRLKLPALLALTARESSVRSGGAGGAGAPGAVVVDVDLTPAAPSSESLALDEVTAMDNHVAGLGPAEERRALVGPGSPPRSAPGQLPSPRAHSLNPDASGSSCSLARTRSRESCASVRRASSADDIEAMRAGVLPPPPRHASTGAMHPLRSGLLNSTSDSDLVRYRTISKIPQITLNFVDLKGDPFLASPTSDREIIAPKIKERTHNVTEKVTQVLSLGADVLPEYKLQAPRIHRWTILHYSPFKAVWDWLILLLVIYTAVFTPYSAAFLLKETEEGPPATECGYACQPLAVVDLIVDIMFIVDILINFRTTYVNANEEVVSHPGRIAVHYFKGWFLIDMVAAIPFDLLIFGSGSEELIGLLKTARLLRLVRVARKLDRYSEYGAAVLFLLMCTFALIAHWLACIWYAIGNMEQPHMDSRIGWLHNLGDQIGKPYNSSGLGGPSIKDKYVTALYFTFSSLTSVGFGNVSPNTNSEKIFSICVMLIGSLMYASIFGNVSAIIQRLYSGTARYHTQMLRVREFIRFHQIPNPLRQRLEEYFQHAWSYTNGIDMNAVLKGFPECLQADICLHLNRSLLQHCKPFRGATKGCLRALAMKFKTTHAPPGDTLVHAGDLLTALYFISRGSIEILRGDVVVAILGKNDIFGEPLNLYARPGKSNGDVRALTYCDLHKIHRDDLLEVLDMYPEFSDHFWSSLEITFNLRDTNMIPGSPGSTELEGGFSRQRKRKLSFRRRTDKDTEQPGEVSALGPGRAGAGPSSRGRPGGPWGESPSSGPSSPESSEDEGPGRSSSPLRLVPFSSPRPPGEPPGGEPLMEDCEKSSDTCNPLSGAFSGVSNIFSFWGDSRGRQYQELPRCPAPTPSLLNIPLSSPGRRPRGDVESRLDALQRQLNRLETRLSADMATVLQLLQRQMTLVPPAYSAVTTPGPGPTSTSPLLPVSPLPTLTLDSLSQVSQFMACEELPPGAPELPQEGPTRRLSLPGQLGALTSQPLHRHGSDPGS

Row | SMILES | hERG current change (%, negative = inhibition) at 10uM
1 | CCc1ccc(NC(=O)CSc2nnc(Cc3cccn3C)n2-c2ccc(OC)cc2)cc1 | -19.5%
2 | Cc1cc(C)cc(C(=O)OCC(=O)NCC(F)(F)F)c1 | 1.96%
3 | Cc1ccsc1/C=N\NC(=O)c1n[nH]c2c1CCC2 | -2.09%
4 | CCC1CCCCN1C(=O)CSc1nnc(-c2cccc(Cl)c2)o1 (stereo not shown) | -38.5%
5 | O=C(O)C(=O)O.O=C(c1ccccc1)c1ccc(OCCCCN2CCCCC2)cc1 | -52.6%
6 | C=CCN(c1ccccc1)S(=O)(=O)c1cccc(C(=O)Nc2cccc(C)n2)c1 | -21.7%
7 | NC(=O)c1ccccc1OCC(=O)NS(=O)(=O)c1ccc(Cl)cc1 | 5.11%
8 | Cc1ccccc1Cn1cc(NC(=O)CCCn2nc([N+](=O)[O-])cc2C)cn1 | -7.52%
9 | Cc1cc(NS(=O)(=O)c2ccc(NC(=O)c3ccco3)cc2)no1 | 3.51%
10 | O=C(/C=C/c1ccc2c(c1)OCCCO2)c1ccc2ccccc2c1O | -8.79%
11 | O=C(NNC(=O)c1sccc1-n1cccc1)c1cccs1 | 8.21%
12 | CCOc1c(Cl)cc(CNCc2ccccn2)cc1OC.Cl | -18.7%
13 | CC1CCCN(C(=O)c2cc(N3C(=O)C4C5CCC(C5)C4C3=O)ccc2Cl)C1 (stereo not shown) | 2.82%
14 | C=CCn1c(SCC(=O)c2c(N)n(C)c(=O)n(C)c2=O)nnc1-c1ccncc1 | 17.5%
15 | O=C(N/N=C/c1ccc(-c2ccccc2)o1)c1ccccc1O | 10.6%
16 | O=C1C(c2c(O)[nH]c3ccccc23)=Nc2ccccc21 | 16.5%
17 | COc1ccccc1Nc1ncccc1C(=O)NCc1ccccc1 | 0.328%
18 | O=C(CCc1nc2ccccc2c(=O)[nH]1)Nc1cc(Cl)ccc1N1CCCC1 | 10.6%
19 | COc1cc(NC(=S)NCc2ccco2)cc(OC)c1OC | 5.61%
20 | COc1ccc(NS(=O)(=O)c2cc(NC(=O)/C=C/c3cccs3)ccc2N2CCOCC2)cc1 | -14.4%
21 | Cc1ccc(S(=O)(=O)CCC(=O)OCC(=O)c2c[nH]c3ccccc23)cc1 | -8.93%
22 | Cn1cc(Cl)c(-c2n[nH]c(=S)n2C2CCCCC2)n1 | 11.6%

Row | SMILES | hERG current change (%, negative = inhibition) at 10uM
23 | COc1cccc(CNC(=O)C2CCN(S(=O)(=O)c3ccc4c(c3)NC(=O)C(C)S4)CC2)c1 (stereo not shown) | -12.6%
24 | COc1cc(C(=O)NCCCNc2nc3c(C)cc(C)cc3cc2C#N)cc(OC)c1OC | 17.8%
25 | COc1ccc(Cc2nnc(NN)[nH]c2=O)cc1OC | 12.4%
26 | CCCCN(C(=O)c1ccc(C)c(S(=O)(=O)N2CCOCC2)c1)c1c(N)n(CC(C)C)c(=O)[nH]c1=O | -48.6%
27 | O=[N+]([O-])c1cc(-c2ccc([As](=O)(O)O)cc2)ccc1[As](=O)(O)O | 24.1%
28 | CC(C)Nc1nc(NC(C)C)nc(Oc2ccc(OCc3ccccc3)nn2)n1 | 3.84%
29 | COCCn1c(N)c(N(Cc2ccccc2)C(=O)Cc2ccccc2F)c(=O)[nH]c1=O | 5.33%
30 | O=C(O)CCn1cc(/C=C/C(=O)c2ccc(Cl)cc2)c(-c2ccc(Br)cc2)n1 | 0.108%
31 | CN(C)C=O.COc1ccc(-n2cnnc2SCC(=O)Nc2ccccc2F)cc1 | -15.7%
32 | C=CC(=O)NN(C)c1ncc(C(F)(F)F)cc1Cl | 23.3%
33 | CCC(=O)N(CC)C1=C(O)c2ccccc2C(=O)C1=O | -2.52%
34 | O=[N+]([O-])c1cccc2c([N+](=O)[O-])cccc12 | 8.81%
35 | Cc1cccc(S(=O)(=O)Nc2ccc(-c3cn4ccccc4n3)cc2)c1 | 10.3%
36 | COc1ccc(NC(=O)CN(C)C(=O)Cc2ccc3c(c2)OCCO3)cc1 | 15.5%
37 | Cc1cn(C2CC(OC(=O)C(C)C)C(CO)O2)c(=O)[nH]c1=O (stereo not shown) | 1.06%
38 | O=C(COC(=O)c1ccccc1SCC(=O)N1CCCC1)Nc1ccccc1C(F)(F)F | 4.16%
39 | CCCCS(=O)c1snnc1C (stereo not shown) | 20.4%
40 | O=C1Nc2ccc(NS(=O)(=O)c3cccs3)c3cccc1c23 | -12.3%
41 | Cn1c2ccccc2c2c(C(=O)N3CCN(c4ccc(F)cc4)CC3)cn(C3CCCC3)c(=O)c21 | -24.3%
42 | O=S(=O)(N1CCCCC1)n1nnc2ccccc21 | -32.6%
43 | CCOc1ccc(NC(=O)CC2C(=O)N(c3cccc(OC)c3)C(=O)N2C(C)C)cc1 (stereo not shown) | 5.3%
44 | CC(OC(=O)C1CC(O)CN1S(=O)(=O)c1ccccc1[N+](=O)[O-])C(=O)N1CCCCC1 (stereo not shown) | -8.19%

Row | SMILES | hERG current change (%, negative = inhibition) at 10uM
45 | Cc1cc2nc(-c3ccc(SCc4ccc(C(=O)O)cc4)nc3)[nH]c2cc1C | 20.6%
46 | COc1ccc(C2C/C(=N\O)C(C)(C)O2)cc1 (stereo not shown) | -1.95%
47 | COc1ccc(CCNS(=O)(=O)c2cn(C)cn2)cc1OC | 26.8%
48 | Cc1ccc(NC(=O)CSc2nc3[nH]c(=O)cc(O)c3s2)c(Br)c1 | 12.2%
49 | Cc1cc(C(=O)CSc2ccc(F)cc2)cc(C)c1OC(=S)N(C)C | -0.176%
50 | CN1CCN(C(=O)CCC(=O)NCc2ccc(F)cc2)CC1 | 13.2%
51 | COc1ccc(-c2nnn(CC(=O)NCc3cccs3)n2)cc1OC | 17.4%
52 | COCC(=O)NCc1ccc2c(c1)OCO2 | -7.78%
53 | C/C(=N\NC(=O)c1ccncc1)C12CC3CC(CC(C3)C1)C2 | 5.6%
54 | COc1ccc(OC)c(NC(=O)Cn2cc(C(=O)c3ccco3)c3ccccc32)c1 | -15.4%
55 | CCS(=O)(=O)N1CCN(C(C)CCc2ccccc2)CC1 (stereo not shown) | -11.7%
56 | COc1ccc2cc(S(=O)(=O)c3ccccc3)c(=O)oc2c1 | -2.81%
57 | COCCN(C(=O)c1ccc(N2CCCC2=O)cc1)c1c(N)n(CC(C)C)c(=O)[nH]c1=O | -0.184%
58 | O=C(Nc1ccc(Br)cn1)c1ccc2ccccc2c1 | 26.8%
59 | N#CC1=C(N)Oc2c(ccc3ccccc23)C1c1cccs1 (stereo not shown) | -3.81%
60 | O=C(CN1CCN(C(=O)c2cccc(-n3cnnn3)c2)CC1)Nc1ccccc1Cl | -90.3%
61 | CC(O)CNc1nc2ccccc2n1CC(=O)N1CCN(Cc2ccccc2)CC1 (stereo not shown) | -22.6%
62 | COc1cc2ccccc2cc1C(=O)OCc1nc2ccsc2c(=O)[nH]1 | 4.6%
63 | O=[N+]([O-])c1ccccc1COc1ccc(Cl)c2cccnc12 | 5.1%
64 | CSc1cccc(NC(=O)c2ccccc2N(C)S(C)(=O)=O)c1 | -6.91%
65 | Cc1cccc(NC(=O)CNC(=O)COC(=O)c2ccco2)c1C | 1.78%
66 | Cc1c(CCO)c(=O)[nH]n1S(=O)(=O)c1ccccc1 | 1.89%

Row | SMILES | hERG current change (%, negative = inhibition) at 10uM
67 | COc1ccccc1C(=O)NCC(=O)OCC(=O)c1cccc2ccccc12 | 4.06%
68 | CCOC(=O)c1sc2ncn(/N=C/c3ccc(O)c(OC)c3)c(=O)c2c1C | 27.9%
69 | COCCn1nc2cc(C(=O)NCc3cc(C(F)(F)F)cc(C(F)(F)F)c3)ccc2c1OC | 21.8%
70 | COC(=O)Nc1cc(C)n(-c2ccccc2)n1 | 8.38%
71 | CC(C)(CNc1ccc([N+](=O)[O-])cc1Cl)N1CCOCC1 | -0.00342%
72 | CCOc1ccc(-c2nnc(SCC(=O)N(CC)CC)n2N)cc1 | 5.1%
73 | CCc1cccc(CC)c1NC(=S)N1CC2CC(C1)c1cccc(=O)n1C2 (stereo not shown) | 5.97%
74 | NS(=O)(=O)c1ccc(CCNS(=O)(=O)c2ccc(Cl)cc2)cc1 | -16.3%
75 | CC(C)CCNC(=O)c1c[nH]c2ccc(S(=O)(=O)N3CCOCC3)cc2c1=O | 13.6%
76 | CCOc1ccc(S(=O)(=O)Nc2ccc(C(=O)NCC3CCCO3)cc2)cc1 (stereo not shown) | -37.4%
77 | O=C1CCCN1c1ccc(S(=O)(=O)Oc2cccc(Cl)c2)cc1[N+](=O)[O-] | -26.6%
78 | O=C(CCN1c2ccccc2Sc2ccccc21)Oc1ccccc1 | 18.3%
79 | COc1ccccc1CNc1ncnc2c1cnn2-c1ccccc1 | -12.1%
80 | COc1ccc(S(=O)(=O)N2CCN(S(=O)(=O)c3ccc4c(c3)OCCO4)CC2)cc1 | 13.2%
81 | Cc1ccc(C(=O)COC(=O)c2cc(Cl)nc3ccccc23)cc1 | -0.141%
82 | Cc1ccc(Cn2ncc3c(NCCCN(C)C)ncnc32)cc1 | -3.16%
83 | CC(C)(C)NC(=O)NC(=O)COC(=O)CCC1CCCC1 | 10.3%
84 | CC(C)C(=O)NCCc1nc(-c2ccc(Cl)cc2)no1 | 5.54%
85 | O=C(c1ccccc1)N1N=C(C(F)(F)F)CC1(O)c1ccc(F)cc1 (stereo not shown) | -1.8%
86 | CCOc1ccc(NC(=O)C2CCCN(C(=O)NCc3ccccc3)C2)cc1 (stereo not shown) | 5.02%
87 | Cc1onc(-c2ccccc2)c1C(=O)NCCCc1ccccc1 | 6.47%
88 | COc1ccc(S(=O)(=O)N(C)C)cc1NC(=O)Cc1c[nH]c2ccccc12 | 5.99%

From PMC4336329 (PLoS ONE, 2015)
